Legend:
[1] = Thermal stability test (DSC, DLS); format: physicochemical
Excerpt: (§1) The above antibodies were cloned, expressed and purified, and the humanized antibodies hAb015-10 and hAb017-10 with the best activity were selected by ELISA, FACS, SPR and other assays.

Raji cell = assay: Cell killing assay of humanized antibodies, Raji; format: cell-based
Excerpt: as §1

Monkey CD79B-His protein = assay: Interspecific cross-reactivity, monkey CD79B; format: binding
Excerpt: as §1

Human CD79B-His protein [2] = target: T1, Human CD79B-His protein (Homo sapiens, UniProt P40259); assay: SPR assay of anti-CD79B antibodies; format: binding
T1 construct: His tag (HHHHHH) (C); made in house; host or cells: 293F cells
T1 sequence (P40259 29-159): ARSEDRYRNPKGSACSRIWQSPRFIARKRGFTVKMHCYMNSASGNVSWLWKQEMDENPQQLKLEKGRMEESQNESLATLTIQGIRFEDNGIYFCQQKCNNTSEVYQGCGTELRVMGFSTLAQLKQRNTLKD
Protocol: 7) Assay on anti-human CD79B mouse monoclonal antibodies by SPR The affinity of the anti-human CD79B antibody for its antigen human CD79B-His was assayed by surface plasmon resonance (SPR) technology. The antigen human CD79B-His protein was immobilized to a CM5 chip. The coupling level was set at 100 RU. The running buffer was HBS-EP+ (10 mM HEPES, 150 mM NaCl, 3 mM EDTA, 0.05% surfactant P20). The diluted antibodies were allowed to flow through the experimental and control channels at a flow rate of 30 μL/min for 3 min and dissociated for 5 min. Regeneration buffer (10 mM Glycine, pH 1.5) was then run at a flow rate of 30 μL/min for 30 s. Data were analyzed using Biacore 8K software.
as §1

Human CD79B-His protein [3] = target: T1, Human CD79B-His protein; assay: ELISA assay of humanized anti-CD79B antibodies; format: binding
Excerpt: as §1

WSU-DLCL2 cell = assay: Cell killing assay of humanized antibodies, WSU-DLCL2; format: cell-based, human
Excerpt: as §1

Mouse CD79B-His protein = target: T2, Mouse CD79B-His protein (Mus musculus, UniProt P15530); assay: Interspecific cross-reactivity, mouse CD79B; format: binding
T2 construct: His
T2 sequence (P15530 26-228): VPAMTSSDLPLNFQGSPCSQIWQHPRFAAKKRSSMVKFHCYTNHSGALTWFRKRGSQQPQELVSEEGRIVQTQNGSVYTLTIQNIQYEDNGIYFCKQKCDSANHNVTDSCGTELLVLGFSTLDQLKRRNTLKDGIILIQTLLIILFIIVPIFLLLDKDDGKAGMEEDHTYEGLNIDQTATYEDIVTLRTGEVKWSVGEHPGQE
Excerpt: as §1

Human CD79B-His protein [4] = target: T1, Human CD79B-His protein; assay: Interspecific cross-reactivity, human CD79B; format: binding
Excerpt: as §1

DoHH2 cell [5] = assay: Cell killing assay of humanized antibodies, DoHH2; format: cell-based, human
Excerpt: as §1

DoHH2 cell [6] = assay: FACS assay of humanized anti-CD79B antibodies; format: binding, human
Excerpt: as §1

[7] = test system: DOHH-2 cells highly expressing human CD79B protein; assay: Endocytosis of anti-CD79B antibodies in DOHH-2 cells; format: cell-based
Protocol: In order to determine whether the CD79B antibodies of the present disclosure can be endocytosed into cells with human CD79B after binding to human CD79B, a cell endocytosis experiment was performed with DOHH-2 cells (DSMZ, ACC 47) highly expressing human CD79B protein to assess the endocytosis ability of the antibodies.
The cells were collected by low temperature centrifugation at 4° C. for 5 min at 1000 rpm during the experiment. The cells were resuspended in 10-15 mL of FACS buffer pre-cooled on ice. The FACS buffer was composed of phosphate buffered saline (PBS), pH 7.4, with 2% fetal bovine serum (FBS). Throughout the experiment, FACS buffer was pre-cooled on ice. The cells were counted and centrifuged, and added to a 96-well plate at 300,000 cells/well. After centrifugation, the supernatant was discarded, and 12.5 μg/mL Fc blocking solution (BD, Cat No.: 564220) was added at 100 μL/well. Blocking was performed at room temperature for 10 min. Then, 20 μg/mL test CD79B antibody was added to the corresponding wells, and the plate was incubated at 4° C. for 1 h away from the light. The plate was washed twice with a pre-cooled PBS buffer to remove unbound antibodies. A complete cell culture medium (RPMI 1640 medium with 10% fetal bovine serum) was added, and the plate was incubated at 37° C. with 5% CO2 for 0 h, 1 h, 2 h and 4 h. After centrifugation, the supernatant was discarded, 2% PFA buffer solution was added at 100 μL/well to resuspend the cells, and the plate was left to stand for 10 min. Then, the plate was washed 3 times with an FACS buffer, and 100 μL of secondary antibody solution (fluorescent labeled goat anti-human secondary antibody: diluted in a 1:250 ratio, 2 μg/mL, Biolegend, Cat #409304) was added. The plate was incubated at 4° C. for half an hour away from the light. A pre-cooled PBS buffer was added, and the supernatant was discarded after centrifugation at 4° C., which were repeated three times. The cells were resuspended in an FACS buffer at 200 μL/well and detected using a flow cytometer (BD FACS Calibur).

B1: hAb017-10: humanized anti-CD79B antibody from mAb017; heavy chain SEQ ID NO: 30, light chain SEQ ID NO: 31 (antibody)
heavy: EVQLVQSGAEVKKPGASVKVSCKASGYTFTTYGINWVKQAPGQGLEWIGEIYPRSGNIYYNEKFKGKATLTADKSTSTAYMELRSLRSDDTAVYYCARGSDYDGDFAYWGQGTLVTVSS[letters of human IgG1 constant region not shown]
light: DVVMTQTPLSLPVTPGEPASISCRSSQSIVHHDGNTYLEWYLQKPGQSPQLLIYKVSNRFSGVPDRFSGSGSGTDFTLKISRVEAEDVGVYYCFQGSHVPWTFGGGTKVEIKRTVAAPSVFIFPPSDEQLKSGTASVVCLLNNFYPREAKVQWKVDNALQSGNSQESVTEQDSKDSTYSLSSTLTLSKADYEKHKVYACEVTHQGLSSPVTKSFNRGEC
modifications: Heavy chain of hAb017-10 humanized antibody; Light chain of hAb017-10 humanized antibody
For B1, the “Thermal stability test DLS (Tagg, ° C.)” value ([1]; DLS) was 67 °C, the “Thermal stability test DSC (Tm, ° C.)” value ([1]; DSC) was 65 °C and the IC50 (Raji cell) was > 100 nM. For the same molecule, the Interspecific cross-reactivity (Monkey CD79B-His protein) was “No”, the Kd (Human CD79B-His protein [2]; Human CD79B-His protein) was 4.3 nM and the “affinity and related functions compared with the mouse monoclonal antibodies” value (Human CD79B-His protein [2]; by ELISA, FACS, SPR and other assays) was “retained similar affinity and related functions to the mouse monoclonal antibodies”. For the same molecule, the EC50 (Human CD79B-His protein [3]) was 0.06 nM, the IC50 (WSU-DLCL2 cell) was 0.049 nM and the Interspecific cross-reactivity (Mouse CD79B-His protein) was “No”. For the same molecule, the Interspecific cross-reactivity (Human CD79B-His protein [4]) was “Yes”, the IC50 (DoHH2 cell [5]) was 0.002 nM and the EC50 (DoHH2 cell [6]) was 0.55 nM. The “endocytosis by DOHH-2 cells at 4° C.” value ([7]; 20 μg/mL antibody, incubation at 4° C.) was “cannot be endocytosed by DOHH-2 cells”, the “endocytosis by DOHH-2 cells at 37° C. after 1 h” value ([7]; 20 μg/mL antibody, incubation at 37° C., 1 h) was “most of the antibodies are already endocytosed by DOHH-2 cells” and the “endocytosis, overall judgement” value ([7]; DOHH-2 cells) was “good endocytosis”. The “time at which antibody endocytosis reaches a maximum” value ([7]; incubation at 37° C.) was 4 h.
